This is one part of the list. Sequences were assembled here from the parent chain. Values near 0.05 are background.
B1: TEV protease; numbered along this chain (parent)
chain: MGESLFKGPRDYNPISSSICHLTNESDGHTTSLYGIGFGPFIITNKHLFRRNNGTLVVQSLHGVFKVKDTTTLQQHLVDGRDMIIIRMPKDFPPFPQKLKFREPQREERICLVTTNFQTKSMSSMVSDTSCTFPSGDGIFWKHWIQTKDGQCGSPLVSTRDGFIVGIHSASNFTNTNNYFTSVPKNFMELLTNQEAQQWVSGWRLNADSVLWGGHKVFMVKPEEPFQPVKEATQL

Variants of: B1
Assay: raw area under fraction-flipped curve 0-4 h after induction (AUC4h, not background-subtracted), DNA-recorder readout of cleavage of the substrate (dimensionless); higher = more cleavage of the substrate by the protease variant
Conditions: temperature: 34 °C; time window: 0-4 h after rhamnose induction
Experimental: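 In vivo DNA recorder in E. coli TOP10(DE3) ΔrhaA at 34 °C. Each TEVp single-site mutant (parent TEVp 0) is paired with a single-site variant of the 7-mer TEVs (canonical ENLYFQ|S). The substrate sits between flexible linkers in a Bxb1-sfGFP-TEVs-SsrA fusion, so cleavage stabilises Bxb1 and speeds flipping of a recombination array, read by NGS. The value is the raw area under the fraction-flipped curve over 0-4 h after rhamnose induction (AUC4h), with ≥20 reads per time point. It is not background-subtracted; inactive controls average about 0.047.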
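Further: Bxb1 expression induced with 0.2% (w/v) L-rhamnose at OD600 near 0.5, cultures sampled hourly, flipped fraction per protease–substrate barcode pair counted by paired-end Illumina sequencing.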

Row | Variant | area with substrate ENLYFQA | area with substrate ENLYFQC | area with substrate ENLYFQH | area with substrate ENLYFQI | area with substrate ENLYFQK | area with substrate ENLYFQL | area with substrate ENLYFQM | area with substrate ENLYFQN | area with substrate ENLYFQR | area with substrate ENLYFQS | area with substrate ENLYFQV | area with substrate ENLYFQW | area with substrate ENLYFQY | area with substrate ENLYFQP | area with substrate ENLYFQT | area with substrate ENLYFQE | area with substrate ENLYFQF | area with substrate ENLYFQG | area with substrate ENLYFQD | area with substrate ENLYFQQ
1 | N186K | 0.0599 | 0.111 | 0.0744 | 0.0485 | 0.0644 | 0.0572 | 0.0753 | 0.084 | 0.057 | 0.0903 | 0.0648 | 0.0614 | 0.0763 | – | – | – | – | – | – | –
2 | N186Q | 0.107 | 0.119 | 0.0826 | – | 0.0439 | 0.0712 | – | 0.0975 | – | 0.106 | – | 0.0823 | 0.0822 | 0.0598 | 0.0682 | – | – | – | – | –
3 | N186S | 0.108 | 0.112 | – | 0.0568 | 0.0602 | – | 0.0676 | – | 0.0471 | 0.104 | – | – | 0.0704 | – | 0.0693 | 0.0841 | – | – | – | –
4 | F187T | 0.0775 | 0.103 | – | – | – | 0.0557 | – | – | – | 0.09 | – | 0.0484 | 0.0684 | 0.0261 | – | – | 0.0656 | 0.0952 | – | –
5 | F187W | 0.079 | 0.102 | 0.0643 | – | 0.0719 | 0.057 | 0.0654 | 0.0548 | 0.0554 | 0.0787 | – | 0.0665 | 0.0734 | 0.0742 | 0.0629 | – | – | 0.075 | 0.063 | –
6 | M188D | 0.128 | 0.124 | – | 0.0599 | 0.0593 | 0.0545 | 0.0567 | 0.0707 | 0.0594 | 0.102 | 0.0677 | 0.0546 | 0.0755 | 0.0554 | 0.0536 | – | – | 0.076 | 0.0757 | 0.0723
7 | M188I | 0.124 | – | 0.0849 | – | 0.0219 | 0.0485 | – | 0.0819 | 0.0592 | 0.113 | – | 0.0412 | – | – | – | 0.058 | – | 0.113 | – | –
8 | E189H | 0.0324 | 0.128 | – | 0.0576 | 0.0759 | 0.0624 | 0.0584 | – | 0.0311 | 0.103 | – | 0.0645 | – | 0.0455 | 0.0781 | 0.0725 | – | – | 0.0596 | –
9 | L190E | 0.0953 | 0.102 | – | 0.0735 | 0.0534 | 0.0575 | 0.106 | 0.0808 | 0.0581 | 0.0993 | 0.0599 | 0.0692 | 0.0773 | – | 0.0658 | – | 0.0777 | – | 0.0617 | 0.0554
10 | L191V | 0.0925 | 0.0914 | 0.0736 | – | – | 0.0568 | 0.0832 | 0.0879 | 0.0623 | 0.0966 | – | – | 0.0911 | – | 0.0494 | – | – | 0.0656 | – | 0.0619
11 | N193D | 0.0893 | – | 0.0843 | – | – | 0.0438 | 0.071 | – | 0.0615 | 0.0972 | – | – | 0.063 | – | 0.0651 | – | – | – | – | –
12 | N193E | 0.0867 | 0.101 | – | 0.0584 | 0.06 | – | 0.0789 | 0.0843 | – | 0.0913 | – | 0.0627 | 0.0734 | 0.0557 | 0.0659 | – | – | 0.0601 | – | –
13 | Q194K | 0.0862 | – | – | 0.0428 | – | 0.0538 | 0.102 | – | 0.0619 | 0.109 | – | 0.066 | 0.0768 | – | 0.0652 | – | – | 0.0901 | – | –
14 | A196T | 0.0911 | 0.122 | – | 0.059 | 0.071 | 0.057 | 0.0824 | 0.0725 | 0.0543 | 0.0946 | – | 0.06 | 0.072 | 0.0759 | 0.0626 | – | 0.0678 | – | – | –
